Here are results for 64 compounds from the supplement of paper PMC9446081.

Screen size: about 39,000 compounds; about 220 (0.56%) showed activity. This is one part of the list.
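Further: static incubation at 37 °C against the wild-type strain, values averaged over two biological replicates.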

This assay relates to Escherichia coli K-12 BW25113. Kind of assay: relative growth (OD600 normalised to plate interquartile mean) (fraction); higher = less growth inhibition, active = 0.2 or less. To be noted: 50 µM; LB; incubation time: overnight (16-24 h).
Consider `C[C@H]1CCCCO[C@H](CN(C)C(=O)c2ccccc2)[C@@H](C)CN([C@@H](C)CO)C(=O)c2cc(NC(=O)Nc3ccc(F)cc3)ccc2O1`, for which the relative growth was inactive: 0.938.
Turning to `COc1ccc(S(=O)(=O)N2C[C@@H](O)COC[C@H]3O[C@H](CC(=O)NCCCN(C)C)CC[C@@H]32)cc1`, the relative growth is inactive: 1.02.
With `C[C@H](CO)N1C[C@H](C)[C@H](CN(C)S(C)(=O)=O)Oc2ncc(C#CCN(C)C)cc2C1=O`, the relative growth is inactive: 1.
In the case of `C[C@@H]1CN([C@@H](C)CO)S(=O)(=O)c2ccc(C#CCN(C)C)cc2O[C@@H]1CN(C)C`, the relative growth was inactive: 0.987.
`C[C@@H]1CN([C@H](C)CO)C(=O)c2cc(NC(=O)NC3CCCCC3)ccc2O[C@H]1CN(C)Cc1ccc(Oc2ccccc2)cc1`: the relative growth was inactive: 0.921.
For `C[C@H]1CN([C@@H](C)CO)C(=O)Cc2cc(NC(=O)CCCCCC(=O)Nc3ccccc3N)ccc2O[C@H]1CN(C)Cc1ccc(Cl)c(Cl)c1` the value was inactive: 0.979.
The value for `COc1ccc(CN(C)C[C@H]2Oc3ccc(NC(=O)Nc4ccc(C(F)(F)F)cc4)cc3C(=O)N([C@H](C)CO)C[C@@H]2C)cc1` was inactive: 0.976; that for `CC(C)N(CCCNC(=O)Nc1ccc(C(C)(C)C)cc1)C[C@H]1O[C@@H](n2ccc3c(N)ncnc32)[C@H](O)[C@@H]1O` was inactive: 0.977.
Regarding `CCOc1ccc(C(=O)Nc2ccc(S(=O)(=O)N3CCCC[C@@H]3c3cccnc3)cc2)cc1OCC`, the relative growth is inactive: 1.01.
For `C[C@@H]1CCCCO[C@@H](CN(C)Cc2ccc(C(=O)O)cc2)[C@H](C)CN([C@H](C)CO)C(=O)c2cc(NC(=O)Nc3ccc(C(F)(F)F)cc3)ccc2O1`, the relative growth was inactive: 0.96.
For `Nc1cc(CO)ccn1`, the relative growth was inactive: 0.995.
For `CNC(=O)c1c(O)c2ccccc2n(C)c1=O` the value was inactive: 1.01; for `COc1ccccc1[C@@H](NC(=O)C1CCN(CCn2cnc3c2c(=O)n(C)c(=O)n3C)CC1)c1ccccn1`, inactive: 0.988; for `C[C@@H]1CN([C@H](C)CO)C(=O)c2cc(NS(=O)(=O)c3ccc(Cl)cc3)ccc2O[C@@H](C)CCCCO[C@@H]1CN(C)C(=O)C1CCCCC1`, inactive: 0.99.
With `Cl.NC1C(O)OC(CO)C(O)C1O` (centres undefined), the relative growth was inactive: 1.19.
For `C[C@@H]1CCCCO[C@H](CN(C)C(=O)Cc2ccccc2)[C@@H](C)CN([C@H](C)CO)C(=O)c2cc(NS(=O)(=O)c3ccc(Cl)cc3)ccc2O1` the value was inactive: 1.03.
The value for `COc1ccc(NC(=O)N(C)C[C@@H]2Oc3c(NC(=O)Nc4ccc(C(F)(F)F)cc4)cccc3C(=O)N([C@H](C)CO)C[C@H]2C)cc1` was inactive: 0.798; that for `CS(=O)(=O)NCc1cnc2n1CCN(C[C@H]1CCOC1)CC2` was inactive: 0.996.
The value for `C[C@@H]1CN([C@H](C)CO)S(=O)(=O)c2ccc(C#Cc3ccncc3)cc2O[C@@H]1CN(C)C(=O)C1CCC1` was inactive: 0.979; that for `COC(=O)c1[nH]c(C(=O)OC)c(O)c1O` was inactive: 1.
`CC(C)CC#Cc1ccc2c(c1)O[C@H](CN(C)C(=O)c1cnccn1)[C@H](C)CN([C@@H](C)CO)S2(=O)=O`: the relative growth was inactive: 0.945.
For `C[C@@H]1CN([C@H](C)CO)C(=O)c2cc(NC(=O)Nc3ccc4c(c3)OCO4)ccc2O[C@@H](C)CCCCO[C@H]1CN(C)Cc1ccc2c(c1)OCO2` the value was inactive: 1.01; for `C[C@@H]1CCCCO[C@H](CN(C)C(=O)CCC(F)(F)F)[C@H](C)CN([C@@H](C)CO)C(=O)c2cc(NC(=O)NC3CCCCC3)ccc2O1`, inactive: 1.01.
On to `C[C@@H]1CN([C@@H](C)CO)C(=O)c2cccc(NC(=O)Nc3ccc(C(F)(F)F)cc3)c2O[C@H]1CN(C)Cc1ccc(Cl)c(Cl)c1`, for which the relative growth was inactive: 0.916.
Consider `CC(C)NC(=O)N(C)C[C@H]1OCCCC[C@H](C)Oc2ccc(NC(=O)Nc3ccc(C(F)(F)F)cc3)cc2C(=O)N([C@H](C)CO)C[C@@H]1C`, for which the relative growth was inactive: 1.03.
For `COc1ccccc1C(=O)Nc1ccc2c(c1)C(=O)N(C)[C@@H]1CC[C@H](CC(=O)NCc3ccc(Cl)c(Cl)c3)O[C@H]1CO2` the value was inactive: 1.02; for `CC(C)NC(=O)N(C)C[C@@H]1Oc2cc(C#Cc3ccccn3)ccc2S(=O)(=O)N([C@@H](C)CO)C[C@@H]1C`, inactive: 0.957.
The value for `O=C(C[C@H]1CC[C@H]2[C@@H](COC[C@H](O)CN2S(=O)(=O)c2ccccc2)O1)N[C@@H]1CCN(Cc2ccccc2)C1` was inactive: 0.98; that for `COc1ccc(NC(=O)N(C)C[C@H]2OCCCC[C@H](C)Oc3ccc(NC(=O)CCC(F)(F)F)cc3C(=O)N([C@@H](C)CO)C[C@@H]2C)cc1` was inactive: 0.992; that for `C=C[C@@H](COC(=O)OC(C)(C)C)N(Cc1ccc(OC)cc1)S(=O)(=O)c1ccc(Br)cc1` was inactive: 1.01.
The value for `Cc1ccc(S(=O)(=O)N[C@@H]2C=C[C@H](CC(=O)NCCN3CCCCC3)O[C@@H]2CO)cc1` was inactive: 1.01; that for `O=C(N[C@@H]1CC(=O)N(C2CC2)C1)C1CCC1` was inactive: 0.982.
As to `CC(C)N[C@H]1CCS(=O)(=O)C1`, the relative growth is inactive: 0.972.
For the compound `COCCOC(=O)N1C(=O)[C@@]2(c3cc(C#CC4=CCCCC4)ccc31)[C@H](C(=O)N1CCc3cc(OC)c(OC)cc3C1)[C@H]1C(=O)O[C@H](c3ccccc3)[C@H](c3ccccc3)N1[C@@H]2c1ccc(O)cc1`, the relative growth was inactive: 1.03.
The value for `NCCOc1cccc(Cl)c1` was inactive: 1.01; that for `Cc1ccc(CN)s1` was inactive: 1.02; that for `Nc1nc(=O)c2ncn([C@H]3C[C@H](O)[C@@H](CO)O3)c2[nH]1` was inactive: 0.997.
The value for `COc1cccc(c1)CN1C[C@]2(CCN(CC2)S(=O)(=O)C)c2c(n(c3cc(ccc23)OC)C)[C@@H]1CO` was inactive: 1.04; that for `NCc1ccccc1N1CCC(CO)CC1` was inactive: 0.975.
Consider `COc1cccc(-n2cc(C(=O)NO)nn2)c1`, for which the relative growth is inactive: 0.945.
For the compound `COc1ccc(S(=O)(=O)Nc2cccc3c2O[C@H](CN(C)C(=O)Nc2cccc4ccccc24)[C@H](C)CN([C@H](C)CO)C3=O)cc1`, the relative growth is inactive: 0.983.
For `C[C@@H]1CN([C@@H](C)CO)C(=O)c2cc(NC(=O)C3CCCCC3)ccc2O[C@@H]1CN(C)Cc1ccc(Cl)c(Cl)c1` the value was inactive: 0.985; for `NCC1OC(OC2C(N)CC(N)C(OC3OC(CO)C(O)C(N)C3O)C2O)C(N)CC1O` (centres undefined), active: 0.0445.
The value for `C[C@H](CO)N1C[C@H](C)[C@@H](CN(C)C(=O)Nc2ccc(C(F)(F)F)cc2)OCCCC[C@H](C)Oc2ccc(NS(=O)(=O)c3ccccc3)cc2C1=O` was inactive: 0.984; that for `CC(C)NC(=O)N(C)C[C@H]1Oc2ccc(NS(=O)(=O)c3cn(C)cn3)cc2C(=O)N([C@H](C)CO)C[C@@H]1C` was inactive: 1.01; that for `N[C@H]1CCC[C@@H]1Cc1ccc(F)cc1` was inactive: 1.02.
Consider `CC(C)Cc1ccc([C@@H](C)C(=O)Nc2ccc(Cl)cc2)cc1`, for which the relative growth was inactive: 1.01.
For `Cc1cccc(S(=O)(=O)N2C[C@@H](O)COC[C@@H]3O[C@@H](CC(=O)N4CCN(C)CC4)CC[C@H]32)c1` the value was inactive: 1; for `C[C@H]1CN([C@@H](C)CO)C(=O)c2cccc(NS(=O)(=O)c3cn(C)cn3)c2O[C@@H]1CN(C)S(=O)(=O)c1cccs1`, inactive: 1.01; for `COc1ccccc1CNC(=O)C[C@@H]1CC[C@H]2[C@@H](COC[C@H](O)CN2S(=O)(=O)c2ccc(C)cc2)O1`, inactive: 1.01.
The value for `C[C@@H]1CCCCO[C@H](CN(C)Cc2ccc(C(F)(F)F)cc2)[C@@H](C)CN([C@@H](C)CO)C(=O)c2cc(NC(=O)Nc3ccccc3)ccc2O1` was inactive: 1.02; that for `C[C@H]1CN([C@@H](C)CO)C(=O)c2cccc(NC(=O)Nc3cccc4ccccc34)c2O[C@@H]1CN(C)S(=O)(=O)c1ccccc1` was inactive: 1.03; that for `CO[C@H]1CN(C)C(=O)c2ccc(NC(=O)c3ccccc3)cc2OC[C@H](C)N(C(=O)CN(C)C)C[C@H]1C` was inactive: 0.922.
In the case of `CCOC(=O)c1ccc(N)cc1`, the relative growth was inactive: 0.968.
Consider `C[C@@H]1CN([C@@H](C)CO)C(=O)c2cc(NC(=O)CCN3CCOCC3)ccc2O[C@@H]1CN(C)C(=O)Nc1ccc2c(c1)OCO2`, for which the relative growth is inactive: 1.
The value for `COc1ccc([C@@H]([C@H](Cc2ccccc2)OC(C)=O)N2C[C@@H](CC(=O)N(C)C)[C@@H]3[C@H]([C@@H]2Cc2ccccc2)N(C)O[C@H]3c2ccccc2)cc1` was inactive: 1.02; that for `C[C@@H]1CN([C@H](C)CO)C(=O)Cc2cc(NC(=O)CCN3CCOCC3)ccc2O[C@@H]1CN(C)Cc1ccncc1` was inactive: 0.999.
The value for `C[C@@H]1CN([C@@H](C)CO)C(=O)c2cccc(NC(=O)Nc3ccc(C(F)(F)F)cc3)c2O[C@H]1CN(C)Cc1ccc2c(c1)OCO2` was inactive: 0.744; that for `COc1ccc(CNC(=O)C[C@@H]2C[C@@H]3c4cc(NC(=O)NC5CCCC5)ccc4O[C@@H]3[C@H](CO)O2)cc1` was inactive: 0.983.
As to `Cc1ccc(S(=O)(=O)N(C)C[C@H]2Oc3ncc(C#CC4(O)CCCC4)cc3C(=O)N([C@H](C)CO)C[C@H]2C)cc1`, the relative growth is inactive: 0.993.
The value for `C[C@H](CO)N1C[C@H](C)[C@@H](CN(C)C(=O)Nc2ccc(C(F)(F)F)cc2)Oc2ccc(NC(=O)Nc3ccccc3)cc2C1=O` was inactive: 1.02; that for `C[C@H](CO)N1C[C@H](C)[C@@H](CN(C)C(=O)CN(C)C)Oc2cc(-c3cncnc3)ccc2S1(=O)=O` was inactive: 0.986.
For `CCNC(=O)[C@@H]1[C@@H](CO)[C@@H]2Cn3c(ccc(-c4cccc(C(=O)N(C)C)c4)c3=O)[C@H]1N2` the value was inactive: 1.02; for `C[C@@H]1CN([C@@H](C)CO)C(=O)Cc2cc(NC(=O)CCN3CCOCC3)ccc2O[C@@H]1CN(C)CC1CCCCC1`, inactive: 1.02.
